The structures appear in SMILES notation. Over roughly 110,000 compounds, “z-score” has its median near -0.1; the highest 2% begin near 2. The list shows a part of the results. Calls of active or inactive are those of the source.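 Rule for the calls: active = z-score in the third read window above 3 or below -3; inactive = the rest.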

For the assay, the target named is Metabotropic glutamate receptor 8 (Rattus norvegicus) (UniProt P70579). In words: rat mGluR8 modulators via GIRK flux, primary screen, cell-based, thallium flux, HTS (AID 488969). The following applies: HEK293 rat mGluR8, GIRK (G protein-gated inwardly rectifying potassium channel) thallium flux, FluoZin2; at 10 µM; stronger effect = higher value; submaximal glutamate (EC20) added with thallium.
UniProt P70579, sequence (P70579 whole entry, looked up): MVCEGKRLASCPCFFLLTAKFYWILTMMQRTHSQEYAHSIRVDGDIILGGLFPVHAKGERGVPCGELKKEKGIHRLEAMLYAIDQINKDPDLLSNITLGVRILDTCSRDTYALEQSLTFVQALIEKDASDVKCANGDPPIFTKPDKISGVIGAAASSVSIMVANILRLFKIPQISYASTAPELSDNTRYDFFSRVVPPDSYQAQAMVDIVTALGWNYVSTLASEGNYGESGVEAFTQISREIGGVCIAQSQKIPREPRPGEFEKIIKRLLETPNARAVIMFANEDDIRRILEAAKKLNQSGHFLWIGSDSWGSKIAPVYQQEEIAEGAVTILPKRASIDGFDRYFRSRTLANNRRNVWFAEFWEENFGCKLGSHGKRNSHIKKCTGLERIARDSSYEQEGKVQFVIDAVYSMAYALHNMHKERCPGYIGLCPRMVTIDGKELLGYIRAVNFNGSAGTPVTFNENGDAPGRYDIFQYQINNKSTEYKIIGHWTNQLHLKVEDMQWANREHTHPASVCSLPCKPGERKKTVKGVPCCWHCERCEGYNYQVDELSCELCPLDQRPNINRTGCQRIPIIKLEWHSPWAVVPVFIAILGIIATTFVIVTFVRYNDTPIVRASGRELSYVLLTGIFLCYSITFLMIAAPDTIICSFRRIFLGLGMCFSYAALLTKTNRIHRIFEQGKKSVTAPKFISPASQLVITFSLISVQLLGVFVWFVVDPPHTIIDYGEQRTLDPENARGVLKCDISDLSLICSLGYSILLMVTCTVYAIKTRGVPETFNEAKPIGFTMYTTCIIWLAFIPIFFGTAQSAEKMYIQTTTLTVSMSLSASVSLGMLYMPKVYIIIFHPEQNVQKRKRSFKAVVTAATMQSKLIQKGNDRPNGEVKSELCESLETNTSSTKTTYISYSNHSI
Consider `Cc1ccc(C)c(N2CCN(CC3CC=CCC3)CC2)c1` (stereo not drawn), for which the z-score was -0.0803.
To `COc1ccccc1-c1cc2ccccc2[nH]1` belongs 0.0197.
As for `COc1ccccc1NC(=O)C1=C(C)Nc2nc(CCCO)nn2C1c1cccnc1` (stereo not drawn), the figure is 0.955.
To `CC(C)(C)n1nnnc1CN1C2CCC1CC(NC(=O)Nc1ccccc1)C2` (stereo not drawn) belongs 0.248; to `Cc1nc2ccccc2c2nc(NC(=O)Cc3ccccc3)nn12`, -0.0341; to `O=C1N=C(N2CCC(Cc3ccccc3)CC2)S/C1=C/c1cn[nH]c1-c1ccccc1`, -0.444.
For `O=C(Nc1ccc(N2CCOCC2)cc1)c1ccc(S(=O)(=O)N2CCCCC2)cc1`, the z-score amounted to 0.987.
As for `CC(=O)c1c(C)[nH]c(C(=O)OCC(=O)Nc2cc(C(F)(F)F)ccc2N2CCOCC2)c1C`, the figure is -0.308; as for `COc1ccc(OC)c(NS(=O)(=O)Cc2ccccc2)c1`, -0.262; as for `C=CCn1c(SCC)nc2sc3c(c2c1=O)CCc1ccccc1-3`, 0.571.
To `Cc1cc(OCc2nc(-c3ccc(NC(=O)c4cccnc4)cc3)no2)ccc1Cl` belongs -0.0767; to `COc1ccc(S(=O)(=O)Nc2ccccc2OC)cc1C`, -0.348; to `CN1CCN(c2nc(-c3cccs3)cc(C(F)(F)F)n2)CC1`, 0.428.
As for `CCc1cccc(C)c1NC(=O)c1cc(C)oc1C`, the figure is -0.302; as for `Cn1cnnc1SCC(=O)Nc1ccc2nc(SCc3cccc4ccccc34)sc2c1`, 0.456.
In the case of `O=c1[nH]c2ccccc2n2c(-c3ccccc3)nnc12`, the z-score is -1.11.
Consider `Cc1cc(Br)ccc1NC(=O)CN1C(=O)C2C3CC(c4ccccc4)C(C3)C2C1=O` (stereo not drawn), for which the z-score was -0.06.
To `CN(c1ccccc1C(=O)Nc1ccccc1C(=O)NCc1ccco1)S(C)(=O)=O` belongs 0.87; to `Clc1ccccc1CN(Cc1ccccc1)C(c1cccs1)c1nnnn1C1CCCC1` (stereo not drawn), -0.135; to `CCn1c(SCC(=O)NCCOC)nc2sc(C)c(C)c2c1=O`, 0.264.
For the compound `CC(=O)c1cc(F)c(N2CCN(C(=O)C(C)(C)C)CC2)cc1C`, the z-score was -0.123.
As to `CCn1c(COc2ccccc2C(N)=O)nc2ccccc21`, the z-score was -0.397.
To `Nc1nc(SCC(=O)N2CCc3ccccc32)[nH]c(=O)c1-c1ccccc1` belongs 0.47; to `Cc1noc(C)c1S(=O)(=O)N(CC(=O)Nc1ccc2c(c1)OCO2)c1ccc(C(C)C)cc1`, -0.439; to `Cc1ccc(C2CC(c3cccs3)n3nc(N)nc3N2)cc1` (stereo not drawn), 0.263.
As for `COc1cc(C)c(CNC2CCCCC2)cc1C`, the figure is 0.606; as for `CCOC(=O)NN1C(=O)c2ccccc2NC1c1ccccc1O` (stereo not drawn), -0.0265; as for `O=C(C1CCN(S(=O)(=O)c2ccc(-n3cnnn3)cc2)CC1)N1CCN(c2ccccc2)CC1`, 0.119.
As for `COC(=O)CCC/C=C1/SCC(NC(=O)c2ccccc2)C1O` (stereo not drawn), the figure is 0.00358; as for `COC(=O)N/N=C/c1ccc(-c2cc(Cl)ccc2Cl)o1`, 0.653; as for `COC(=O)c1ccccc1NC(=O)Cn1ccnc1`, 0.000174.
Regarding `COc1cccc(N2C(=O)CC(N3CCC(C(N)=O)(N4CCCCC4)CC3)C2=O)c1` (stereo not drawn), the z-score amounted to 0.0589.
To `Cc1nc(Oc2ccccc2)c2oc3ccccc3c2n1` belongs -0.225.
To `Cc1ccc(NC(=O)NC2CCCCC2)c(C)c1` belongs -0.228.
To `CCCCn1c(-c2ccc(Cl)cc2)nc2c(=O)n(C)c(=O)[nH]c21` belongs active: -3.28; to `COc1ccc(S(=O)(=O)CCC(=O)NCCc2cccc(C)c2)cc1`, 0.00176; to `Cn1c(Cc2csc(N)n2)nnc1SCC(=O)NCc1ccccc1`, 0.898.
In turn, `C/C(=N/NC(=O)Cc1ccccc1)c1ccc(C)s1` gave a z-score of 0.0405.
As for `O=C1C=C(Nc2ccc(Cl)cc2)CC(c2ccccc2)C1` (stereo not drawn), the figure is -0.16; as for `CC1(C)CC(=O)C(C=NCC(N)=O)=C(O)C1`, -0.178; as for `C=C1N(c2ccccc2)C(=O)OC1(C)C`, -0.0556.
To `O=C(COC(=O)c1ccccc1C(=O)c1ccccc1)NCCc1ccccc1` belongs -0.46; to `CCSC1=C(C#N)C2(CCCC2)C(C#N)=C(N)N1`, -0.525.
Consider `COC(=O)Nc1c(C(=O)OC)cc(OC)c(OC)c1OC`, for which the z-score is -0.152.
To `Cc1cc(C=C2C(=O)c3ccccc3C2=O)c(C)n1-c1ccc(Cl)cc1` belongs 0.35; to `CCOC(=O)C1CCN(C(=O)c2ccccc2Oc2ccccc2)CC1`, -0.386; to `CN(C)CCCNc1oc(-c2ccc(Cl)cc2)nc1C#N`, 1.35.
To `Cn1c(=O)c(=O)n(C)c2cc(S(=O)(=O)N3CCN(C4CCCCC4)CC3)ccc21` belongs -0.443.
As for `N/C(=N\OC(=O)c1ccc(Cl)cc1)c1cccnc1`, the figure is 0.654.
For `CSc1ncccc1C(=O)OCc1ccccc1`, the z-score was -0.164.
`CCC(=O)Nc1cccc(NC(=O)COc2ccc(OC)cc2)c1` yielded a z-score of 0.781.
In the case of `CC(=O)OCc1nc2ccccc2s1`, the z-score is -0.172.
For the compound `CCCC(=O)NC(=S)Nc1cccc(C(C)=O)c1`, the z-score is -0.153.
On to `Cn1c(=O)c([N+](=O)[O-])c(NCc2ccccc2)c2ccccc21`, for which the z-score was -0.608.
For `CNS(=O)(=O)c1ccc(NC(=O)c2nc3nc(C)cc(C(F)F)n3n2)cc1`, the z-score is -0.548.
For `CC(C)c1ccc(NC(=O)C2C3C=CC4(CN(CCCN5CCOCC5)C(=O)C24)O3)cc1` (stereo not drawn), the z-score is -0.269.
As for `CCOc1ccc(-c2nc(-c3ccncc3)no2)cc1OCC`, the figure is 2.12; as for `Cc1nn(C)cc1C1Nc2ccccc2C(=O)N1O` (stereo not drawn), -0.121.
As for `O=C(CCCn1cnc([N+](=O)[O-])n1)Nc1ccc(Cl)c(Cl)c1`, the figure is -0.0863; as for `O=C1CC(Cc2ccc(Cl)cc2)C(=O)N1c1ccncc1` (stereo not drawn), 0.037; as for `Cc1cc(C(=O)CSc2nnc(-c3ccncc3)n2-c2ccccc2)c(C)n1C`, active: 4.58.
As for `CCOC(=O)c1ccc(-n2c(N)c(C(=O)NCC3CCCO3)sc2=S)cc1` (stereo not drawn), the figure is 0.547; as for `O=C(C/C(=N\NC(=O)c1ccccc1Br)C(F)(F)F)c1cccs1`, 0.65; as for `NC(=O)CCC(NS(=O)(=O)c1ccc(Cl)cc1)C(=O)NCc1ccccc1` (stereo not drawn), -0.229.
For `CC(C)(C)C1CCC(=NNC(=O)CN(c2ccccc2)S(C)(=O)=O)CC1` (stereo not drawn), the z-score is -0.0722.
To `CCOc1ccccc1Oc1c(C)oc2c(CN3CCN(C)CC3)c(O)ccc2c1=O` belongs 0.544; to `O=C(Nc1ccc(Cl)cc1)OC(CN1CCCCC1)C(F)(F)F` (stereo not drawn), -0.481.
`COc1ccc(OC)c(NC(=O)Cc2nn(C)c(=O)c3ccccc23)c1` yielded a z-score of 0.00504.
To `O=C1OCCC1Sc1nc2ccccc2n1-c1ccccc1` (stereo not drawn) belongs -0.852; to `O=C(CSc1nnc(-c2ccc(Cl)cc2)n1Cc1ccco1)c1cccs1`, -0.596; to `C=CCn1c(N)c(C(=O)NCCC2=CCCCC2)sc1=S`, -0.423.
As for `O=C(c1ccccc1-c1ccccc1)N1CCOCC1`, the figure is 0.23.
For the compound `O=C(Oc1ccccc1Cl)c1ccccc1P(=O)(O)O`, the z-score turned out to be 0.0445.
As for `CNCC(O)Cn1c(C(F)(F)F)nc2ccccc21` (stereo not drawn), the figure is 0.456.
As for `O=C(Nc1ccc(F)cc1F)c1cc2nc3c(c(C(F)(F)F)n2n1)CCCC3`, the figure is -0.127.
Turning to `COC(=O)Nc1ccc(S(=O)(=O)Nc2cccc3ccccc23)cc1`, the z-score is -0.325.
`COc1ccccc1Cn1c(-c2ccccc2OC)nc2ccccc21` returned a z-score of 0.706.
To `O=C1C(=Cc2ccco2)C(=O)c2ccccc21` belongs -0.383; to `COC(C(=O)Nc1ccccc1F)c1ccccc1` (stereo not drawn), -0.239.
With `O=C(Cc1cc(=O)[nH]c(=O)[nH]1)N1CCC(Cc2ccccc2)CC1`, the z-score was -0.299.
Take `Cc1c(NC(=O)Nc2ccccc2)cccc1[N+](=O)[O-]`: the z-score worked out at 0.571.
As for `O=C(NCc1cccnc1)c1sc2cc(Cl)ccc2c1Cl`, the figure is -0.46.
Consider `CSc1ccccc1NC(=O)CN(C)CC(=O)Nc1ccccc1F`, for which the z-score is -0.139.
As for `O=C(Cc1cccs1)NCc1ccco1`, the z-score is 0.0526.
On to `Cn1c2c(c(=O)n(C)c1=O)C(c1ccc(Cl)cc1)C(C#N)=C(N)O2` (stereo not drawn), for which the z-score was 0.311.
As for `N#Cc1c(N)nc2c(c1N)CC(=O)N2c1ccc(Cl)cc1`, the z-score is -0.532.
To `CCN(CC)CC(C)(C)NS(=O)(=O)c1ccc(Cl)cc1` belongs -0.281; to `COc1ccc(N/N=C(\C#N)C(N)=O)cc1`, 0.451; to `N#CC1=C(Nc2ccccc2)SC=C(c2ccc(Cl)c(Cl)c2)N=C1N1CCOCC1`, 1.78.
With `O=C(N/N=C/c1ccc(Cl)cc1)c1sccc1OCc1ccc(F)cc1`, the z-score came to 0.026.
Take `Cc1onc(-c2ccccc2Cl)c1C(=O)Nc1cccc(-c2cn3cccnc3n2)c1`: the z-score was -1.07.
`COc1ccccc1C1C2CCCCC2(O)CCN1CC(=O)Nc1ccccc1` (stereo not drawn): the z-score was -0.155.
As for `Cc1cccc(CCNS(=O)(=O)c2ccc3c(c2)oc(=O)n3C)c1`, the figure is -0.127; as for `COc1ccc(C(=O)Nc2cccc3cccnc23)cc1OC`, -0.467.
On to `CCOC(=O)c1sc(NC(=O)C(CC)Sc2nccn2C)nc1C` (stereo not drawn), for which the z-score is -0.124.
As for `CCc1ccc(NC(=O)C2CCN(S(C)(=O)=O)CC2)cc1`, the figure is 1.27; as for `Cc1cc(C)c2cc(CN(CC3CCCO3)C(=O)NC3CCCCC3)c(=O)[nH]c2c1` (stereo not drawn), -1.39.
`CCC(C)N1CCCCC1C(=O)Nc1c(C)cc(C)cc1C` (stereo not drawn) displayed a z-score of 0.665.
As for `CCOC(=O)C1C(C#N)=C(N)OC(C)=C1c1ccncc1` (stereo not drawn), the figure is -0.177.
As for `O=C(NCc1cccs1)Nc1cccs1`, the figure is 0.0933.
To `C[C@H](C(=O)C=[N+]=[N-])N1C(=O)c2ccccc2C1=O` belongs -0.275; to `COCC(=O)N/N=C(\C)CC(=O)Nc1ccccc1C(N)=O`, -0.185; to `COc1ccc(S(=O)(=O)N2CCC(C(=O)N3CCOCC3)CC2)cc1OC`, -0.172.
Turning to `O=C(CCN1C(=O)COc2ccccc21)NCCN1CCOCC1`, the z-score came out at 0.151.
As for `Cc1ccc(-c2noc(CCC(=O)NCCCN3CCN(c4cccc(Cl)c4)CC3)n2)cc1`, the figure is 0.00656; as for `CC(C)(C)c1ccc(NC(=O)COC(=O)CCN2C(=O)c3cccc([N+](=O)[O-])c3C2=O)cc1`, 0.0301; as for `CCOC(=O)Cc1csc(NC(=O)Cc2ccc([N+](=O)[O-])cc2)n1`, -0.174.
To `Cc1ccccc1/C=c1\s/c(=C\C(=O)C(C)(C)C)[nH]c1=O` belongs active: 5.84; to `Cc1ccc(-c2csc3ncn(CC(=O)N4CCOCC4)c(=O)c23)cc1`, 0.838; to `COc1cc(C(=O)Oc2ccccc2/C=N/NC(=O)c2ccc(C)cc2)cc(OC)c1OC`, -0.0934.
As for `COc1ccc(NC(=O)COC(=O)CC23CC4CC(CC(C4)C2)C3)c([N+](=O)[O-])c1`, the figure is 2.75.
For `N#CC(C(=O)CCN1C(=O)C2CC=CCC2C1=O)c1nc2ccccc2[nH]1` (stereo not drawn), the z-score stood at 0.0368.
Take `Cn1cccc1/C=C1\SC(=S)N(NC(=O)c2ccc(Cl)cc2)C1=O`: the z-score was -0.467.
